For some of these results: Not every detail of the peptide structures is certain; ends, links or a residue may be inferred. For some of these results: At least one structure is not confirmed: it was looked up by name or label, or the drawing left a doubt.
Tests used:
B1 receptors [1] = biological target: T1, B1 receptors (Oryctolagus cuniculus, UniProt P48748); test: B1 receptor bioassay, rabbit aorta strips contracted with des-Arg9-BK; type: cell-based; conditions: 50% reduction of sustained contraction to 10^-7 M des-Arg9-BK
T1 construct: The thorax was opened and the thoracic aorta carefully removed; from tissue; host or cells: rabbit thoracic aorta spiral strips
T1 sequence (P48748 1-352): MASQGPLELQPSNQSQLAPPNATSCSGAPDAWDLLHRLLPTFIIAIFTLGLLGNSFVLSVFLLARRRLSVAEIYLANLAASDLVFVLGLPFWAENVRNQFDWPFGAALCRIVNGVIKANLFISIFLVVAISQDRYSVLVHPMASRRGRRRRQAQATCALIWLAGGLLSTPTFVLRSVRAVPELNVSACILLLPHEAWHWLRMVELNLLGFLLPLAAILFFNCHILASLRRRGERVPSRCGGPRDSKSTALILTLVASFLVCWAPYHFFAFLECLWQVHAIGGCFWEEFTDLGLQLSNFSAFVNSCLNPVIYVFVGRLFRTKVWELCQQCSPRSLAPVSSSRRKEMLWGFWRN
Description: Male New Zealand white rabbits, weight range 2-3 kg, were killed by an overdose of pentobarbital i.v. The thorax was opened and the thoracic aorta carefully removed. […] The tissues were placed under 1 gm isometric tension and allowed to equilibrate for 1H. At time 1h, a concentration-effect curve was constructed to the selective B1 agonist des-Arg^9 -BK. This was repeated at time 3 hours. […] Once the contraction was sustained, the compound to be assayed was applied to the tissue bath in a cumulative manner. The concentration of the compound which produced a 50% reduction of the sustained contraction was calculated. The negative logarithm of this concentration was calculated and expressed as the […].

Human B2 receptors = biological target: T2, Human B2 receptors (Homo sapiens, UniProt P30411); test: Human B2 binding, cloned receptor in CHO cell membranes, 3H-bradykinin; conditions: CHO clone S34f membranes, 0.3 nM 3H-Bradykinin, room temperature 45 min
T2 construct: expressed in transfected cells; membranes used
T2 sequence (P30411 1-364 isoform P30411-2): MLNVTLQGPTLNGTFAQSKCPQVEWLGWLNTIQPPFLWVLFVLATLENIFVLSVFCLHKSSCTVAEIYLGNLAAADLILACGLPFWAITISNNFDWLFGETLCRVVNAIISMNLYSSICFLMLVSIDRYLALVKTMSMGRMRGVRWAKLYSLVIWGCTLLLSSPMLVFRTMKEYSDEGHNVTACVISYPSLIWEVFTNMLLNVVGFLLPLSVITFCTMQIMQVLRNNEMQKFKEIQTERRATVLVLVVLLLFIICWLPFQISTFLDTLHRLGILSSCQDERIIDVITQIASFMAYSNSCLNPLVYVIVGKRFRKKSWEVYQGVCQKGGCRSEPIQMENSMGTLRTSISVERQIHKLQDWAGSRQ
Excerpt: Human B2 receptors were cloned and expressed in Chinese hamster ovary cells. RNA was isolated from human lung fibroblasts (CCD-16 LU obtained from the ATCC) using the method of Chirgwin et al (Biochemistry 18:5294 (1979)). The RNA was transcribed into cDNA using MMLV reverse transcriptase, the primer […] and the procedure of Maniatis (Molecular Cloning Cold Spring Harbor Laboratory (1982)). The human B2 receptor cDNA was selectively amplified using nested PCR. The first round PCR used the two primers […] and […] and Taq DNA polymerase (Promega). […]
An aliquot of this reaction was used to transform frozen competent E. coli DH5α cells (GibcoBRL). […] One of the transformants was selected and the sequence of the human B2 receptor DNA insert determined using the Sequenase enzyme (United States Biochemical) according to the manufacturer's instructions. […]
Cells containing the receptor were grown to confluence and harvested by scraping into PBS and homogenized. […] Radioactivity was measured on a Wallac 1450 MicroBeta LSC.
The Kd for the receptor was determined by kinetic analysis of on and off rates utilizing a single exponential decay off rate. Ki 's for compounds were calculated using the following equation: Ki =IC50 /(1+[L]/Kd), where L=free ligand concentration.

B1 receptors [2] = biological target: T3, B1 receptors (Canis lupus familiaris, UniProt Q9BDQ5); test: Dog blood pressure, hypotensive response to des-Arg9-BK; type: in vivo; conditions: 60 minutes after a 25 minute infusion of 1 mg/kg/min
T3 construct: Mongrel dogs of either sex, weight range 10-15 kg were used; from tissue; host or cells: anaesthetized mongrel dog, whole animal
T3 sequence (Q9BDQ5 1-350): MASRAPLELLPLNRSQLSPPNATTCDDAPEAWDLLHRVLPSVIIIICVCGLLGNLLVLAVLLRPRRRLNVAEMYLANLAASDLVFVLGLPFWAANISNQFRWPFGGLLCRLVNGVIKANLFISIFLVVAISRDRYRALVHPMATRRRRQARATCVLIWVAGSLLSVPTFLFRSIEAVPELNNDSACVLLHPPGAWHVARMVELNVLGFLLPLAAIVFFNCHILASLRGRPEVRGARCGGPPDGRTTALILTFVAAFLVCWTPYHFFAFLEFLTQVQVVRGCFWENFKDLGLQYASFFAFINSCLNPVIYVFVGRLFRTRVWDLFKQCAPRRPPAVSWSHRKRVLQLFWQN

[3] = test system: hypotensive action of bradykinin; test: Blood pressure in the anesthetized rat: inhibition of hypotensive action of bradykinin; type: in vivo; conditions: intraarterial bolus mixture with BK, 500 g male rat; indicated approximately

Compound | Rabbit Aorta p IC50 B1 receptors (B1 receptors [1]) | Human Receptor Clone B2 receptor binding (Ki) (Human B2 receptors) | Duration of action: response to des-Arg9-Bk (B1 receptors [2]) | Blood Pressure: dose of peptide that causes 50% reduction in the effect of BK [3]
N=C(N)NCCC[C@H](NC(=O)[C@@H]1C[C@@H]2CCCC[C@@H]2N1C(=O)[C@H](NC(=O)[C@H](CO)NC(=O)[C@H](Cc1cccs1)NC(=O)CNC(=O)[C@@H]1C[C@@H](O)CN1C(=O)[C@@H]1CCCN1C(=O)[C@H](CCCNC(=N)N)NC(=O)[C@@H](CCCNC(=N)N)NC(=O)CCCCCNC(=O)CCC(=O)N[C@H](CCCNC(=N)N)C(=O)N[C@@H](CCCNC(=N)N)C(=O)N1CCC[C@H]1C(=O)N1C[C@H](O)C[C@H]1C(=O)NCC(=O)N[C@@H](Cc1cccs1)C(=O)N[C@@H](CO)C(=O)N[C@@H](C(=O)N1[C@H](C(=O)N[C@@H](CCCNC(=N)N)C(=O)O)C[C@@H]2CCCC[C@@H]21)C1Cc2ccccc2C1)C1Cc2ccccc2C1)C(=O)O [Compound 47, Eac-DArg-Arg-Pro-Hyp-Gly-Thi-Ser-DIglb-Oic-Arg Suc-DArg-Arg-Pro-Hyp-Gly-Thi-Ser-DIglb-Oic-Arg] | 5.35 ± 0.18 | 10.26 |  | 
N=C(N)NCCC[C@@H](N)C(=O)N[C@@H](CCCNC(=N)N)C(=O)N1CCC[C@H]1C(=O)N1C[C@H](O)C[C@H]1C(=O)NCC(=O)N[C@@H](Cc1cccs1)C(=O)N[C@@H](CO)C(=O)N[C@@H](C(=O)N1[C@H](C(=O)N[C@@H](CCCNC(=N)N)C(=O)O)C[C@@H]2CCCC[C@@H]21)C1Cc2ccccc2C1 [Compound 7, DArg-Arg-Pro-Hyp-Gly-Thi-Ser-DIglb-Oic-Arg] |  |  | normal | 5 micrograms

Reference: patent US5648336A (University of Colorado, priority 1994, dated 1997)
